The whole screen tested about 43,000 compounds, of which about 200 (0.47%) were called active. Another 12% or so got no clear call; they are omitted. The call rests on the fitted dose curve; in most records, active means well fitted cell-killing curve with a large enough effect; inconclusive means small, poorly fitted or top-dose-only effect, or effect the other way; inactive means flat fitted curve, though single readings scatter. The list shows a part of the results.
Assay: Cell viability qHTS assay in S16 Pmp22-F2sN cells; further: nearly all actives have a fitted effect of over 65% in size
Settings: S16 Pmp22-F2sN Schwann cells (luciferase reporters placed in the Pmp22 gene) viability, CellTiter-Glo, 24 h; series mostly up to 57.5 µM; activity change, negative = cytotoxicity: at the top concentration
Procedure, shortened: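 S16 Schwann cells carrying the Pmp22-F2sN reporter, seeded in 1536-well format, were exposed to library compounds for 24 h at 37C. Viability was read as CellTiter-Glo luminescence after 15 min at room temperature.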
On the % scale 0 is the no-effect control and ±100 the full control effect.

**Q.** With `CCOc1ccccc1NC(=O)Cn1cnc2onc(-c3ccc(F)cc3)c2c1=O` as the compound, how does the “activity change, negative = cytotoxicity” value read?
**A.** The value was inactive: -6.42%.

**Q.** With `O=C(OCc1cc(=O)n2nc(C3CC3)sc2n1)c1ccc(F)cc1` as the compound, how does the “activity change, negative = cytotoxicity” value read?
**A.** Its value is inactive: -11.5%.

**Q.** For `CC1=C(C(N)=O)C(c2cccc(Br)c2)n2nc(SCc3ccccc3)nc2N1` (stereo not drawn), which “activity change, negative = cytotoxicity” value is on record?
**A.** The value was inactive: 0.334%.

**Q.** Which “activity change, negative = cytotoxicity” value does the source give for `O=C(NCc1cccnc1)C1CCN(Cc2cc3ccccc3n2Cc2cccc(Cl)c2)CC1` here?
**A.** The value was inactive: -26.4%.

**Q.** With `CCCCc1nnc(SCc2cc(=O)c3cc(C(=O)OCC)ccc3[nH]2)n1C` as the compound, how does the “activity change, negative = cytotoxicity” value read?
**A.** The value was inactive: 2.57%.

**Q.** Which “activity change, negative = cytotoxicity” value does the source give for `CC(=O)Nc1cccc(C(=O)NCc2ccc3c(c2)CCN3C(=O)c2ccccc2)c1` here?
**A.** Its value is inactive: -0.123%.

**Q.** Which “activity change, negative = cytotoxicity” value does the source give for `CCOc1ccc(CCNC(=O)Cn2nnc(-c3ccccc3)n2)cc1OCC` here?
**A.** Its value is inactive: -4.75%.

**Q.** For `Cc1ccc2cccc(NC(=O)c3ccc(-c4cccc([N+](=O)[O-])c4)o3)c2n1`, which “activity change, negative = cytotoxicity” value is on record?
**A.** The value was inactive: 2.74%.

**Q.** For `COc1cc(OC)c(NC(=O)NC(C)c2c(-n3cccc3)sc(C)c2C)cc1Cl` (stereo not drawn), which “activity change, negative = cytotoxicity” value is on record?
**A.** Its value is inactive: 0.513%.

**Q.** For `COc1cc(NS(=O)(=O)c2ccc(NC(=O)c3ccccc3C(=O)O)cc2)nc(OC)n1`, which “activity change, negative = cytotoxicity” value is on record?
**A.** The value was inactive: 0.348%.

**Q.** With `CCCCNC(=O)CSc1nc2nc(C)c(Cc3ccccc3C)c(C)n2n1` as the compound, how does the “activity change, negative = cytotoxicity” value read?
**A.** Its value is inactive: 8.98%.

**Q.** For `CCC1CCc2nc3sc(C(=O)Nc4ccc(F)cc4F)c(N)c3cc2C1` (stereo not drawn), which “activity change, negative = cytotoxicity” value is on record?
**A.** Its value is inactive: 3.82%.

**Q.** With `COc1ccc(C(=O)N2CC(=O)Nc3ccc(F)cc3C2c2ccc(F)cc2)c(OC)c1` (stereo not drawn) as the compound, how does the “activity change, negative = cytotoxicity” value read?
**A.** Its value is inactive: -1.04%.

**Q.** With `CCOC(=O)c1sc(NC(=O)/C=C/c2ccc(OCC)cc2)c(C(=O)OCC)c1C` as the compound, how does the “activity change, negative = cytotoxicity” value read?
**A.** The value was inactive: 8.58%.

**Q.** For `CC(C)CC(=O)Nc1ccc(C(=O)OCc2cc(=O)n3nc(C(C)C)sc3n2)cc1`, which “activity change, negative = cytotoxicity” value is on record?
**A.** The value was inactive: 0.0516%.

**Q.** For `COc1cccc(C(=O)Nc2cc(-c3ccccc3)no2)c1`, which “activity change, negative = cytotoxicity” value is on record?
**A.** The value was inactive: -4.56%.

**Q.** Which “activity change, negative = cytotoxicity” value does the source give for `COc1ccc(/C=C/c2nc(C#N)c(NCCc3ccc(OC)c(OC)c3)o2)cc1OC` here?
**A.** Its value is inactive: -0.519%.

**Q.** With `O=C(Cc1cccc([N+](=O)[O-])c1)NCc1nc2cccnc2n1Cc1ccc(F)cc1` as the compound, how does the “activity change, negative = cytotoxicity” value read?
**A.** The value was inactive: -7.29%.

**Q.** Which “activity change, negative = cytotoxicity” value does the source give for `CC(=O)c1cccc(NC(=O)C2CCCN(c3nnc(-n4cccc4)s3)C2)c1` (stereo not drawn) here?
**A.** The value was inactive: 6.3%.

**Q.** For `CCCCNC(=O)CCn1c(=O)c2ccccc2n(Cc2ccccc2C#N)c1=O`, which “activity change, negative = cytotoxicity” value is on record?
**A.** Its value is inactive: 18.9%.

**Q.** With `CCC(=O)N1CCc2cc(Br)cc(S(=O)(=O)N3CCCC(C(=O)Nc4cccc(Cl)c4C)C3)c21` (stereo not drawn) as the compound, how does the “activity change, negative = cytotoxicity” value read?
**A.** The value was inactive: -4.99%.

**Q.** With `CCOc1ccc(CC(=O)Nc2c(C(=O)c3ccc(C)cc3)oc3ccccc23)cc1OCC` as the compound, how does the “activity change, negative = cytotoxicity” value read?
**A.** The value was inactive: 0.14%.

**Q.** Which “activity change, negative = cytotoxicity” value does the source give for `Cc1ccc(C(=O)COC(=O)C(CC(C)C)NC(=O)C2CCC(C)CC2)cc1` (stereo not drawn) here?
**A.** The value was inactive: 0.432%.

**Q.** Which “activity change, negative = cytotoxicity” value does the source give for `CCc1ccccc1NC(=O)c1ccc2nc(CCc3ccccc3)oc2c1` here?
**A.** The value was inactive: -22.5%.

**Q.** For `Cc1ccccc1-c1nc(CS(=O)(=O)CC(=O)N2CCN(c3ccccc3)CC2)c(C)o1`, which “activity change, negative = cytotoxicity” value is on record?
**A.** Its value is inactive: 20.6%.

**Q.** For `Cn1c(=O)cc(OCCCC(=O)Nc2ccc(F)cc2)c2ccccc21`, which “activity change, negative = cytotoxicity” value is on record?
**A.** Its value is inactive: -18.6%.

**Q.** For `CCOc1ccc(NS(=O)(=O)c2cc(Br)cc3c2N(C(=O)C2CC2)CC3)cc1`, which “activity change, negative = cytotoxicity” value is on record?
**A.** Its value is inactive: -9.17%.

**Q.** Which “activity change, negative = cytotoxicity” value does the source give for `CCCN(CCC)CCCNC(=O)C1CCCN(S(=O)(=O)c2cccc3nsnc23)C1` (stereo not drawn) here?
**A.** The value was inactive: 4.48%.

**Q.** Which “activity change, negative = cytotoxicity” value does the source give for `Cc1cccc(CSc2cn(CC(=O)N3CCCC3)c3ccccc23)c1` here?
**A.** The value was inactive: -9.58%.

**Q.** Which “activity change, negative = cytotoxicity” value does the source give for `CCC(Oc1ccccc1)C(=O)Nc1ccc2oc(-c3ccc(OC)cc3)nc2c1` (stereo not drawn) here?
**A.** The value was inactive: 0.218%.

**Q.** Which “activity change, negative = cytotoxicity” value does the source give for `CC(=O)Nc1ccc(NC(=O)CCNS(=O)(=O)c2cccc3nsnc23)cc1` here?
**A.** Its value is inactive: 14.6%.

**Q.** For `CCc1ccc2oc(-c3cccc(NC(=O)c4ccc(N5CCC(C)CC5)c([N+](=O)[O-])c4)c3)nc2c1`, which “activity change, negative = cytotoxicity” value is on record?
**A.** The value was inactive: 2.87%.

**Q.** With `COc1cccc(NC(=O)Cn2cc(S(=O)(=O)N3CCCC3)c(S(=O)(=O)N3CCCC3)c2)c1` as the compound, how does the “activity change, negative = cytotoxicity” value read?
**A.** Its value is inactive: -12.2%.

**Q.** For `CCOc1ccccc1CNC(=O)c1cc2cc(S(=O)(=O)N3CCCCC3)ccc2n1C`, which “activity change, negative = cytotoxicity” value is on record?
**A.** The value was inactive: -20%.

**Q.** With `Cc1ccccc1CNC(=O)Cn1ncn2nc(-c3cccs3)cc2c1=O` as the compound, how does the “activity change, negative = cytotoxicity” value read?
**A.** The value was inactive: -9.51%.

**Q.** With `CCOc1ccc(N(CC)S(=O)(=O)N2CCCC(C(=O)NCc3ccccc3Cl)C2)cc1` (stereo not drawn) as the compound, how does the “activity change, negative = cytotoxicity” value read?
**A.** Its value is inactive: -4.44%.

**Q.** Which “activity change, negative = cytotoxicity” value does the source give for `CCOc1cccc(CC(=O)N2CCc3c([nH]c4ccccc34)C2c2ccc(F)cc2)c1OCC` (stereo not drawn) here?
**A.** Its value is inactive: 0.249%.

**Q.** Which “activity change, negative = cytotoxicity” value does the source give for `Cc1ccc(CNC(=O)CSCc2ccc(F)cc2)cc1` here?
**A.** The value was inactive: 8.2%.

**Q.** With `O=C(COc1ccc(S(=O)(=O)NC2CCCCC2)cc1)Nc1ccc(C(F)(F)F)cc1` as the compound, how does the “activity change, negative = cytotoxicity” value read?
**A.** The value was inactive: 11.8%.

**Q.** Which “activity change, negative = cytotoxicity” value does the source give for `COc1ccc(-c2noc(CSCC(=O)Nc3cccc(C(F)(F)F)c3)n2)cc1OC` here?
**A.** Its value is inactive: 4.01%.

**Q.** For `CCOc1ccc(C2Nc3ccccc3-c3nnc(SCc4ccccc4)nc3O2)cc1OC` (stereo not drawn), which “activity change, negative = cytotoxicity” value is on record?
**A.** The value was inactive: -4.78%.

**Q.** Which “activity change, negative = cytotoxicity” value does the source give for `CC(C)CCN(Cc1ccco1)C(=O)c1cc2c(Cl)nc3ccccc3c2s1` here?
**A.** The value was inactive: -2.24%.

**Q.** For `Cc1ccc(S(=O)(=O)CC(=O)Nc2sc3c(c2C#N)CCCCC3)cc1`, which “activity change, negative = cytotoxicity” value is on record?
**A.** The value was inactive: 1.22%.

**Q.** With `CCc1cccc(NC(=O)c2ccc(CN3C(=O)C(C)=C(c4ccc(OC)cc4)S3(=O)=O)cc2)c1` as the compound, how does the “activity change, negative = cytotoxicity” value read?
**A.** The value was inactive: -7.53%.

**Q.** Which “activity change, negative = cytotoxicity” value does the source give for `CCOc1ccccc1NC(=O)Nc1nnc(N2CCCCCC2)s1` here?
**A.** The value was inactive: -4.64%.

**Q.** With `Cc1ccccc1CNC(=O)C1CCCN(S(=O)(=O)N(C)c2ccc(F)cc2)C1` (stereo not drawn) as the compound, how does the “activity change, negative = cytotoxicity” value read?
**A.** Its value is inactive: 0.116%.

**Q.** With `CCC(=O)N1CCc2cc(Br)cc(S(=O)(=O)CCC(=O)NCCc3ccc(Cl)cc3)c21` as the compound, how does the “activity change, negative = cytotoxicity” value read?
**A.** The value was inactive: -18.9%.

**Q.** With `CCCOc1ccc(-c2nn(-c3ccccc3)cc2C2NC(=O)NC(C)=C2C(=O)OC)cc1C` (stereo not drawn) as the compound, how does the “activity change, negative = cytotoxicity” value read?
**A.** The value was inactive: -4.15%.
